PubChem BioAssay (EPA / NIEHS)
For some assays here: The hits were mostly taken out for another list; the other results follow. Records with an inconclusive call do not appear. Only a part is listed here, and it is no random draw. Where a structure was tested more than once in an assay, its records may differ in their call. Active and inactive are the calls of the source. How the source made its calls: active means hit-call score of the fitted dose curve at least 0.9, where 1 is the maximum; inconclusive means response in the unintended direction; inactive means score below 0.9.

Tested on: not listed separately
Test: TOX21_p53_BLA_p2_viability: Viability Assessment in the Tox21 HCT-116 p53 Agonism Beta-lactamase Assay, Phase 2 (AID 2283591);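 further: actives lower the ATP signal meaning cytotoxicity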
Outline: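 HCT-116 p53-bla cells (4000/well) rested 5 h at 37C, then received compounds in DMSO (217-fold dilution) for 16 h at 37C, 5% CO2. After the CCF4 read, CellTiter-Glo was added; ATP luminescence was read after 30 min at room temperature.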

Row | SMILES | outcome | AC50
1 | N[C@@H](Cc1ccc(N(CCCl)CCCl)cc1)C(=O)O | inactive | –
2 | COc1ccc2c(c1)C13CCCC[C@@H]1C(C2)N(C)CC3 (some centres undefined) | inactive | –
3 | C[C@]12C/C(=C/O)C(=O)C[C@@H]1CC[C@@H]1[C@@H]2CC[C@@]2(C)[C@H]1CC[C@]2(C)O | – | active: 62.2 µM
4 | O=C(Nc1ccc2[nH]ccc2c1)c1cc2cc(F)ccc2n1Cc1cccc(F)c1 | – | active: 43.7 µM

Target: Cellular tumor antigen p53 (Homo sapiens) (UniProt P04637)
Test: TOX21_p53_BLA_p3_ratio: Tox21 HCT-116 p53 Agonism Beta-lactamase Assay, Ratio, Phase 3 (AID 2283596)
Outline: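 Cells were seeded at 4000/well, rested 5 h at 37C, then dosed with DMSO compound solutions (217-fold dilution) for 16 h. CCF4-AM substrate was loaded for 2 h at room temperature, and the 460/530 nm emission ratio was fitted for gain of signal versus DMSO.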

Row | SMILES | outcome | AC50
5 | ClC1=C(Cl)C2(Cl)C3C(Cl)C=CC3C1(Cl)C2(Cl)Cl (centres undefined) | inactive | –
6 | COC1=CC=C2[C@H]3Cc4ccc(OC)c5c4[C@@]2(CCN3C)[C@H]1O5 | inactive | –
7 | CC1=C(C(=O)Nc2ccccc2)S(=O)(=O)CCO1 | – | active: 54.4 µM
8 | O=C(Cl)/C=C/C(=O)Cl | inactive | –
9 | Brc1ccc(Br)cc1 | inactive | –

Tested on: not listed separately
Test: TOX21_p53_BLA_p4_viability: Viability Assessment in the Tox21 HCT-116 p53 Agonism Beta-lactamase Assay, Phase 4 (AID 2283597);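 further: hits lower the luminescence signal meaning cytotoxicity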
Outline: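 4000 HCT116 cells per well; 5 h attachment; compounds from DMSO, 217-fold dilution; 16 h at 37C. Then CCF4-AM, 2 h RT, followed by CellTiter-Glo, 30 min RT, luminescence. Decrease = cytotoxicity.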

Row | SMILES | outcome | AC50
10 | CC1OC(C)OC(C)O1 (centres undefined) | inactive | –
11 | CC(C)(O)C(Cl)(Cl)Cl | inactive | –
12 | c1csc(C2(N3CCCCC3)CCCCC2)c1 | inactive | –
13 | O=C1Nc2ccc(Cl)cc2C(c2ccccc2)=NC1O (centres undefined) | inactive | –
14 | COC(=O)Nc1cccc(OC(=O)Nc2cccc(C)c2)c1 | inactive | –
15 | CCCCCCCCCCCCCC[P+](CCCCCC)(CCCCCC)CCCCCC (tested in a mixture with another compound) | – | active: 20.6 µM
16 | CC(C)[N+](C)(CCC(C(N)=O)(c1ccccc1)c1ccccc1)C(C)C | inactive | –
17 | [S]=[Sb](=[S])[S][Sb](=[S])=[S] | inactive | –

Target: Cellular tumor antigen p53 (Homo sapiens) (UniProt P04637)
Test: TOX21_p53_BLA_p5_ratio: Tox21 HCT-116 p53 Agonism Beta-lactamase Assay, Ratio, Phase 5 (AID 2283599)
Outline: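 HCT-116 cells carrying a p53-inducible beta-lactamase reporter were seeded at 4000 cells/well and dosed after 5 h with compound in DMSO (217-fold dilution). After 16 h at 37C, CCF4-AM substrate was added for 2 h, and the 460/530 nm emission ratio was scored as gain-of-signal versus DMSO.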

Row | SMILES | outcome
18 | CCCSC(=O)Cl | inactive
19 | ClC1=C(Cl)C2(Cl)C3C(Cl)C=CC3C1(Cl)C2(Cl)Cl (centres undefined) | inactive
20 | CCc1nn(C)c(C(=O)NCc2ccc(C(C)(C)C)cc2)c1Cl | inactive
21 | COc1c(C(C)(C)C)cc([N+](=O)[O-])c(C)c1[N+](=O)[O-] | inactive
22 | C=CC#N | inactive
23 | COc1ccc(C(O)(c2cncnc2)C2CC2)cc1 (centres undefined) | inactive
24 | C[C@]12CC[C@H]3[C@@H](CCC4=CC(=O)CC[C@@H]43)[C@@H]1CC[C@@H]2OC(=O)CCc1ccccc1 | inactive
25 | O=c1ssc(Cl)c1Cl | inactive
26 | CCCCN=C=O | inactive

Tested on: not listed separately
Test: TOX21_p53_BLA_p5_viability: Viability Assessment in the Tox21 HCT-116 p53 Agonism Beta-lactamase Assay, Phase 5 (AID 2283600)
Outline: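 Decreased CellTiter-Glo luminescence denotes lost viability. Exposure: 16 h at 37C, 5% CO2, with compounds from DMSO stocks diluted 217-fold in wells of 4000 cells.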

Row | SMILES | outcome
27 | O=[N+]([O-])c1ccccc1O | inactive
28 | CCC12COCN1COC2 | inactive
29 | CC1(C)C(/C=C(\Cl)C(F)(F)F)C1C(=O)OC(C#N)c1cccc(Oc2ccccc2)c1 (centres undefined) | inactive
